In all, about 33,000 sequences were measured (“E-score (-0.5 to 0.5)”: median about -0.054, highest 2% from about 0.39 on). The list shows a part of the results.
target: Ylr278c (UniProt Q05854); assay: PBM E-score (8-mer binding enrichment) (E-score (-0.5 to 0.5)); higher = stronger / more preferred TF binding; most listed sequences are background and not binding sites; conditions: protein concentration: 200 nM; construct: GST-DNA-binding domain
In short: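 Each ungapped eight-base word and its reverse complement, pooled, received an E-score from the Universal PBM Analysis Suite. Underlying scans, normalised with masliner, recorded fluorescent anti-GST bound to GST-tagged yeast transcription factors. These were applied at about 100-200 nM to universal all-10-mer Agilent arrays double-stranded by primer extension.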

In order of falling “PBM E-score” value:
1. TCGGAGAA  0.465
2. CGGACTTA  0.452
3. CGGAGCTC  0.441
4. TCCGGGCA  0.406
5. CTACGGAG  0.398
6. CGCCGAAG  0.365
7. ACGCGGGG  0.352
8. CCGCTCGC  0.318
9. CCGATACA  0.316
10. GTTGCGGA  0.316
11. AACACGGA  0.315
12. AACCCGGC  0.313
13. CCGGCCAC  0.303
14. CGTCCGAG  0.296
15. AATGGCGG  0.286
16. AGTCGGGG  0.282
17. CGGATGAA  0.274
18. CCGAGTTC  0.256
19. AATCGGTC  0.246
20. TCAGCCGA  0.231
21. ACTGCCGC  0.214
22. CGGGATAG  0.211
23. ACCGATCC  0.207
24. AAGCGCGC  0.203
25. ACAATTCC  0.185
26. ACGGACGA  0.177
27. CGATACGC  0.166
28. GGACATAC  0.165
29. CCGCAGTC  0.15
30. GAAGATCC  0.145
31. AGTCGGGA  0.142
32. ATAGTGCG  0.125
33. CTAACGCC  0.117
34. AAAGCAAG  0.116
35. CCCGCGAA  0.114
36. AAGATTCG  0.107
37. AGCTCGTG  0.101
38. GTGGGATA  0.0989
39. ATGCGCCC  0.0972
40. AAACGTTT  0.097
41. CAATTTTC  0.0932
42. GATAACCA  0.0922
43. ATCCATCG  0.0877
44. ACAACGAA  0.0769
45. CCACGGTA  0.07
46. AAATTGGG  0.0673
47. CGCCACAC  0.0664
48. CATACCGC  0.0643
49. AGTGTTCA  0.0534
50. GAAACCAA  0.0455
51. ATTATGGC  0.0441
52. AACATAAT  0.0435
53. ACTCGCGA  0.0423
54. GGCACGCA  0.0349
55. GACAGTAA  0.0296
56. CGGTCTAC  0.0266
57. GACGCGCC  0.0222
58. AAGCGCTG  0.0216
59. CAAGGAAC  0.0184
60. CAAAATGC  0.0166
61. AAATAAGA  0.0159
62. CCATCTTA  0.0144
63. CCTTATCC  0.00991
64. GCATATGA  0.00978
65. CACCAATC  0.00689
66. AACAAATG  0.00468
67. ACCCGTTA  0.00406
68. AGATCCTC  -0.001
69. CGTTAGTA  -0.00349
70. AGGCCAAA  -0.00385
71. AACAATCG  -0.0095
72. ACTTAGAT  -0.0121
73. GCCAGACC  -0.0137
74. CGTTTGCA  -0.0145
75. CTTTACAA  -0.0164
76. CTGTGCCC  -0.0177
77. CTCAAACC  -0.0196
78. CGAGGGAG  -0.0236
79. CTCAAGGA  -0.0312
80. GCTTAAGA  -0.0315
81. GACTCGCA  -0.0335
82. TACAACCA  -0.037
83. ATAAAACA  -0.0379
84. ACCTCGTA  -0.0382
85. GACTGCGC  -0.0407
86. AGCTCTCC  -0.0413
87. ATCTGTTA  -0.0419
88. ACCCGTCC  -0.0428
89. GCCTCCAC  -0.044
90. ATAGGGCC  -0.0457
91. ACTGCAAT  -0.0461
92. ACGAATCC  -0.0473
93. CCTTTTAC  -0.0485
94. CGAGCCTA  -0.0485
95. CATCTACC  -0.0486
96. AGTGCACA  -0.0486
97. AATGGGCG  -0.049
98. CCTCGATC  -0.0491
99. GATAACGA  -0.0507
100. AAGAAACT  -0.0525
101. CGATCCCA  -0.0535
102. GACACAAC  -0.0648
103. AGTCTGCA  -0.0655
104. CAAAATTG  -0.0658
105. ATTCTACA  -0.0671
106. AAGGGCGC  -0.0682
107. GAGGAGAC  -0.0694
108. TCCTAGAA  -0.0707
109. ATGCTGCG  -0.0708
110. TTGATCAA  -0.0727
111. CCATGAGA  -0.0752
112. TCGAGCAA  -0.076
113. AGAGGGCC  -0.0781
114. CCAAGCCC  -0.0799
115. CAGTAACA  -0.0814
116. ACTGGGGC  -0.0853
117. AATATGGC  -0.0867
118. GCAGGACA  -0.0882
119. CATAGAAC  -0.0911
120. CAAAATGA  -0.0925
121. ATATAAGA  -0.094
122. CTTTAAAC  -0.0952
123. AGATCCCA  -0.0965
124. CGACCACA  -0.0971
125. ATAGGCGA  -0.0977
126. AAACAGTA  -0.0988
127. CAATGAAC  -0.0994
128. TGAATAAA  -0.101
129. CGACGAGC  -0.102
130. CAATCCTA  -0.103
131. ACACCACG  -0.103
132. AGGTATGC  -0.106
133. ATCGTAAG  -0.106
134. GACAGGTC  -0.11
135. CGTTGGGA  -0.111
136. ACCACTGG  -0.112
137. AGATAACA  -0.113
138. TAGGGGCA  -0.118
139. ACCATGAG  -0.118
140. CAGCGTTA  -0.121
141. ACATTGGG  -0.122
142. AGTAAAAC  -0.123
143. AACGTTTG  -0.126
144. AGTGATAA  -0.129
145. TAAATAAA  -0.133
146. TGGGGGAA  -0.135
147. CTTTTATA  -0.137
148. CTGGCAGA  -0.137
149. ATCATATG  -0.139
150. ACGAGCAA  -0.139
151. AGACGCTC  -0.14
152. GCTCTTCA  -0.141
153. ACTAGTTG  -0.142
154. ATGTAGAG  -0.144
155. ACAGTAAC  -0.145
156. AAGACCTC  -0.145
157. ACGCGCTG  -0.145
158. CCTTACAG  -0.146
159. CAAGCTAC  -0.146
160. CCTTAAGC  -0.147
161. ATCAGTGG  -0.147
162. CGTGCATC  -0.152
163. CCTTTAGC  -0.152
164. AGCAGCAG  -0.153
165. GTGCTCTA  -0.157
166. AATGGGGA  -0.166
167. CCATAGCA  -0.167
168. CTTCCAAA  -0.169
169. GGCTGACC  -0.17
170. CATACTCA  -0.174
171. CTATCGTA  -0.18
172. AACTAGTG  -0.182
173. AGGGGGCA  -0.182
174. ACTAAGTA  -0.187
175. GTGGTATA  -0.188
176. ATGAAGGG  -0.189
177. TAACCTGA  -0.193
178. CCCATGAA  -0.196
179. CTTCTTGA  -0.2
180. AGACCTAG  -0.201
181. GCAGGCGA  -0.201
182. CACAATGA  -0.202
183. ACCCATAG  -0.203
184. CACTGCTA  -0.205
185. AGCATCTG  -0.21
186. ATCGTTTA  -0.21
187. CCCCTAGC  -0.214
188. TCAGGCAA  -0.216
189. GCTATGTA  -0.219
190. AAGAGTTA  -0.22
191. CTACGTCA  -0.22
192. CTGTTACA  -0.221
193. AGGGTTAT  -0.222
194. AGCCTGTC  -0.224
195. AGCTAACG  -0.226
196. AGGACATG  -0.229
197. GCCCAGGC  -0.231
198. CTGCACGA  -0.238
199. CACAGTAG  -0.239
200. ACGTGCTG  -0.243
201. ACCAGGCA  -0.243
202. ATGCAGAC  -0.252
203. ACGAGTCT  -0.252
204. CAGCTAGA  -0.255
205. AGCTGGAG  -0.255
206. CCTCGCTA  -0.256
207. CAGCAGCA  -0.26
208. CAATGCTA  -0.268
209. TACTTAGA  -0.272
210. ATGTTTTA  -0.276
211. AGGGCTTG  -0.285
212. GTCACCAA  -0.286
213. GTACAGAC  -0.288
214. CTGTCGAA  -0.289
215. CCCTCTGC  -0.301
216. CCCCCTGA  -0.306
217. AGAGAGCC  -0.31
218. CCCTCTAG  -0.311
219. AAGTCTGG  -0.326

— the supplement of paper PMC3334620
